Reference: PubChem BioAssay AID1745853 (National Center for Advancing Translational Sciences (NCATS), 2022)
Some of the results follow. Shown are side measurements of this screen, not its main read-out; they come without a call.

Legend:
Test in all cases: Primary Screen for Target Class Profiling of Small Molecule Inhibitors of Methyltransferases
[1] = molecular target: Glycine N-methyltransferase (Homo sapiens) (UniProt Q14749); conditions: purified enzyme, MTase-Glo SAH luminescence; measured here: GNMT inhibition; at 40 µM; stronger effect = lower value
How it was run: (§1)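 Each enzyme was reacted with SAM and its substrate, with compounds tested once at 40 uM; SAH formed was read by MTase-Glo luminescence.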

[2] = molecular target: Guanidinoacetate N-methyltransferase (Homo sapiens) (UniProt Q14353); conditions: purified enzyme, MTase-Glo SAH luminescence; measured here: GAMT inhibition; at 40 µM; stronger effect = lower value
How it was run: as §1

[3] = molecular target: Histamine N-methyltransferase (Homo sapiens) (UniProt P50135); conditions: purified enzyme, MTase-Glo SAH luminescence; measured here: HNMT inhibition; at 40 µM; stronger effect = lower value
How it was run: as §1

[4] = molecular target: Nicotinamide N-methyltransferase (Homo sapiens) (UniProt P40261); conditions: purified enzyme, MTase-Glo SAH luminescence; measured here: NNMT inhibition; at 40 µM; stronger effect = lower value
How it was run: as §1

[5] = molecular target: Phenylethanolamine N-methyltransferase (Homo sapiens) (UniProt P11086); conditions: purified enzyme, MTase-Glo SAH luminescence; measured here: PNMT inhibition; at 40 µM; stronger effect = lower value
How it was run: as §1
% is set by controls: 0 for no effect and ±100 for the full control effect.

Compound | activity change, negative = inhibition [1] [%] | activity change, negative = inhibition [2] [%] | activity change, negative = inhibition [3] [%] | activity change, negative = inhibition [4] [%] | activity change, negative = inhibition [5] [%]
COc1ccccc1NC(=O)N1Cc2ccccc2-n2cccc2C1c1ccccc1 (stereo not drawn) | 3.92 | 0 | -0.576 | -0.882 | 4.55
CCCNC(=O)N1Cc2ccccc2-n2cccc2C1c1ccc(OC)cc1 (stereo not drawn) | 4.07 | -0.816 | 2.92 | -11.1 | -1.08
CN(C)c1ccc(C2c3cccn3-c3ccccc3CN2C(=O)NC2CCCC2)cc1 (stereo not drawn) | 9.96 | 1.02 | -3.46 | -2.64 | 5.89
N#CC(OC1OC(COC2OC(CO)C(O)C(O)C2O)C(O)C(O)C1O)c1ccccc1 (stereo not drawn) | 0 | – | 0.488 | – | –
CC(C)N1CC2CCC(C1)N2Cc1cccs1 | -3.6 | -5.73 | -3.38 | -9.19 | -7.03
Cc1ccc(NC(=O)N2Cc3ccccc3-n3cccc3C2c2cccs2)cc1 (stereo not drawn) | 7.35 | 0.644 | 2.77 | 4.7 | 7.18
O=C(NCc1ccccc1)N1Cc2ccccc2-n2cccc2C1c1ccccc1 (stereo not drawn) | 7.06 | 3.26 | 1.92 | -8.25 | 5.41
CC(C)N1C[C@@H]2OCC(=O)N(Cc3ccccn3)[C@@H]2C1 | -4.16 | -1.25 | -0.132 | -0.913 | 1.76
CO/C1=C/C(C)=C\[C@@H](C)[C@@H](O)[C@@H](C)C/C(C)=C\C=C/[C@H](OC)[C@@H]([C@@H](C)[C@@H](O)[C@H](C)[C@@]2(O)C[C@@H](O)[C@H](C)[C@@H](C(C)C)O2)OC1=O | – | 9.22 | – | -3.73 | 5.61
N=C(N)c1ccc(CS(=O)(=O)F)cc1 | 3.41 | 12 | 4.86 | 0.398 | 7.37
C=C1C(=O)CC2OC2(C)CC2OC(=O)C(=C)C2C(O)C1OC(=O)/C(C)=C\C (stereo not drawn) | -0.812 | -4.26 | 6.02 | -18.5 | -14.8
O=C(O)CNC(=O)c1c(O)c2ccccc2n(Cc2ccccc2)c1=O | 1.63 | -2.04 | 5.83 | -11.4 | 1.02
Cc1ccccc1C1c2cccn2-c2ccccc2CN1C(=O)Nc1ccccc1 (stereo not drawn) | 10.5 | 0 | 7.89 | 3.16 | 5.9
Cc1cc(C[C@@H]2COC[C@@H]2NC(=O)c2cn(C)c3ccccc23)on1 | -3.65 | -8.47 | -2.04 | -3.94 | -5.29
COc1ccc(OC)c(NC(=O)N2Cc3ccccc3-n3cccc3C2c2cccc(Cl)c2)c1 (stereo not drawn) | 10.3 | 1.29 | 4.21 | 5.55 | 6.63
CCOC(=O)Cc1ccc(NC(=O)N2Cc3ccccc3-n3cccc3C2c2ccc(F)cc2)cc1 (stereo not drawn) | -0.594 | 2.95 | 3.39 | 6.19 | 7.54

Compound | activity change, negative = inhibition [1] [%] | activity change, negative = inhibition [2] [%] | activity change, negative = inhibition [3] [%] | activity change, negative = inhibition [4] [%] | activity change, negative = inhibition [5] [%]
C=C[C@H]1CN2CC[C@H]1C[C@@H]2CNS(=O)(=O)c1ccc(Cl)cc1 | -6.64 | -9.17 | -5.89 | -11.3 | 6.08
NC(=NCCC[C@H](N)C(=O)O)N[N+](=O)[O-] | 3.51 | 13 | 8.87 | -1.41 | 6.18
COCCn1c(C)cc(C(=O)NC2CCc3nnc(C4CC4)n3CC2)c1C (stereo not drawn) | -1.32 | 0.277 | -0.978 | -1.33 | -2.86
O=C1NC(=O)c2c1c1c3ccccc3[nH]c1c1[nH]c3ccccc3c21 | – | -37.7 | – | -51 | -19
CC(CCc1ccccc1)NC(C)C(O)c1ccc(O)cc1 (stereo not drawn) | -4.28 | 6.93 | -9.18 | -9.87 | 1.38
CCCOC(=O)Cc1ccc(OCC(=O)N(CC)CC)c(OC)c1 | -2.45 | -4.37 | -4.19 | -22.1 | -9.09
COc1ccc(C2c3cccn3-c3ccccc3CN2C(=O)Nc2cccc(C)c2)cc1 (stereo not drawn) | 6.96 | 0 | -0.082 | 0.373 | 4.97
COc1ccc(C)cc1NC(=O)N1Cc2ccccc2-n2cccc2C1C(C)C (stereo not drawn) | 2.35 | 0.159 | 4.39 | 1.73 | 6.92
CCc1ccc(NC(=O)N2Cc3ccccc3-n3cccc3C2CC)cc1 (stereo not drawn) | 1.05 | 0 | 2.55 | 1.64 | 7.11
CC1c2cccn2-c2ccccc2CN1C(=O)Nc1ccc(F)cc1 (stereo not drawn) | 11.5 | 4.43 | 5.11 | -5.73 | 5.4
COc1cccc(CNC(=O)N2Cc3ccccc3-n3cccc3C2C(C)C)c1 (stereo not drawn) | -3.01 | -0.592 | -3.19 | -3.77 | 2.45
CCc1ccc(NC(=O)N2Cc3ccccc3-n3cccc3C2c2ccccc2Cl)cc1 (stereo not drawn) | 5.13 | 5.46 | -3.94 | -1.97 | 1.48
O=C1C[C@@H]2OCC=C3CN4CC[C@]56c7ccccc7N1[C@H]5[C@H]2[C@H]3C[C@H]46 | 4.83 | 2.73 | 9.48 | -10.3 | 6.71
CCc1ccccc1NC(=O)N1Cc2ccccc2-n2cccc2C1C(C)C (stereo not drawn) | 1.41 | 0.386 | 3.93 | 2.98 | 4.68
CC1=CC(=O)[C@@H](O)[C@]2(C)C3[C@@H](O)[C@@H]4OC(=O)[C@@H]([C@H]4C)[C@]3(C)C(=O)[C@H](O)[C@@H]12 (stereo partly drawn) | 4.34 | 7.16 | 7.5 | -4.75 | 7.88
